# Laboratory results taken from ChEMBL document CHEMBL4888484, “Replenishing the malaria drug discovery pipeline: Screening and hit evaluation of the MMV Hit Generation Library 1 (HGL1) against asexual blood stage Plasmodium falciparum ,using a nano luciferase reporter read-out” (2022).
# In all, about 4,800 compounds went through this assay and about 420 (8.8%) showed an effect of 50% or more. The list shows a part of the results.
# Tested on: Plasmodium falciparum
# Assay: Confirmatory screen in NF54 nanoGlo assay, in single point, at 2uM, 72h
# Assay type: functional, Erythrocyte
# Details: timepoint 72 hour
row,SMILES,% Inhibition [%]
1,O=C(Nc1nccs1)C1C(c2ccccc2)C1(Cl)Cl (stereo not given),-18
2,O=C(c1cc2c(s1)CCCC2)N1CCC[C@H](c2nnc3ccccn23)C1,-17
3,CC(C)(C)C(=O)/C(=N\OC(=O)Nc1ccc(Cl)cc1)n1cncn1,-6
4,CCn1c(=O)c(N2CCN(C(=O)Nc3cccc(C)c3C)CC2)nc2ccccc21,-1
5,Cc1ccc(S(=O)(=O)Nc2c(S(=O)(=O)c3ccc(C)cc3)c3nc4ccccc4nc3n2CCC(C)C)cc1,98
6,O=S(=O)(c1c[nH]c2cccc(F)c12)N1CC[C@]2(CCOC2)C1,-18
7,COc1ccc(S(=O)(=O)N2CCN(S(=O)(=O)c3ccc(OC)cc3)C2)cc1,-4
8,Cc1nn2c(-c3ccc(-c4ccccc4)cc3)ccnc2c1Br,1
9,C=CCCCNc1ccc(C(N)=O)c(F)c1,-1
10,CC(=O)N(CC[C@]1(Cc2ccccc2Cl)CCOC(C)(C)C1)Cc1ccco1,-7
11,CC(C)(C)OC(=O)N1CCC[C@H]1C(=O)n1ccnc1,-2
12,COc1ccc(-c2cc(C(F)F)nc(N3CCN(Cc4ccccn4)CC3)n2)cc1OC,-7
13,O=C(Cc1ccc(F)cc1)N[C@H](c1ccccc1)C1CC1,4
14,O=C1c2ccccc2C(=O)N1Cc1cnn(CC(F)F)c1,3
15,O=C(Nc1[nH]c(=O)ncc1F)c1cccc2ccccc12,84
16,CCC(C)(C)NC(=O)c1cn(CC2(O)CCN(Cc3ccccc3)CC2)nn1,-3
17,CCNC(=O)c1ccc(-c2nc(CS(=O)(=O)c3ccccc3)c(C)o2)cc1,-13
18,O=C1C[C@@H](c2ccc(C(F)(F)F)cc2)c2c(O)nc(N3CCN(CCO)CC3)nc2N1,-4
19,Cc1ccc(NC(=O)NC(=O)Cn2ccc(=O)c3sccc32)cc1C,0
20,O=C(NCC1CC12CCc1ccccc12)NC1CC2CCC1O2 (stereo not given),-3
21,Cc1cc2c(cc1C)N(CC(=O)Nc1ccc(C(F)(F)F)cc1)C(=O)CC(c1cccs1)=N2,-9
22,CC1(C)C(c2ccccc2)=NO[C@@H]1N1CCOCC1,5
23,Cc1cccc(N2CCN(C(=O)c3ccc4c(c3)C(=O)N(c3cc(C)on3)C4=O)C[C@@H]2C)c1,-3
24,Cc1n[nH]c(CN(C)S(=O)(=O)Cc2cccc(C(F)(F)F)c2)n1,2
25,COc1ccc2c(NC(=O)Cc3c(C)noc3C)n[nH]c2c1,0

row,SMILES,% Inhibition [%]
1,N#Cc1nc2c(C#N)c(N)n(CCc3ccccc3)c2nc1C#N,87
2,Cc1cc(NC(=O)c2ccncc2)cc2c1OCCO2,-15
3,Cc1ccc(CN2CCN(C[C@@H](O)Cn3c4ccccc4n4c(=O)cc(C)c(C#N)c34)CC2)c(C)c1,89
4,CC(C)(C)OC(=O)N1CCN(C[C@H]2CN(c3ccc(F)cc3)C(=O)O2)CC1,-11
5,CC1(C)Oc2ccc(S(=O)(=O)NC3CCCCC3)cc2NC1=O,-8
6,CC[C@H]1CCCCN1c1ccc2nnnn2n1,0
7,CCOC(=O)C1CCN(C(=O)Nc2ccc(NC(=O)N3CCC(C(=O)OCC)CC3)cc2)CC1,0
8,O=C(OCC(=O)N1CCCc2ccccc21)c1nccc2ccccc12,0
9,O=C1NCCC[C@@H]1Nc1ccc(C(F)(F)F)nn1,-3
10,CC(C)c1cc(C(C)C)c(S(=O)(=O)N[C@@H](Cc2ccccc2)c2ccc(-c3ccccc3)cc2)c(C(C)C)c1,-10
11,Fc1ccc(Nc2nc3c(s2)CCCC3)cc1,-17
12,Cc1ccc(S(=O)(=O)NCC(=O)N2CCC[C@H]2c2ccc3c(c2)OCCCO3)cc1C,-4
13,COc1cccc(Oc2nc(N3CCN(C)CC3)nc3c2CN(C(=O)Nc2ccccc2)CC3)c1,5
14,CCOCC(=O)Nc1ccc(C(C)=O)c(Cl)c1,-9
15,N#Cc1c(CN2CCOCC2)cc(=O)n2c1[nH]c1ccccc12,-4
16,O=C1C[C@H](C(=O)NC2(c3cc(C(F)(F)F)ccc3Cl)CC2)CN1,-2
17,Cc1oc(C)c(C(=O)N2CCc3cnccc32)c1C,-13
18,COc1ccc(Nc2nc(C(C(F)(F)F)(C(F)(F)F)C(F)(F)F)nc(C(C(F)(F)F)(C(F)(F)F)C(F)(F)F)n2)cc1,-4
19,COc1ccc(C(=O)C[n+]2nc(CNc3ccc(Br)cc3)n3c2CCCCC3)cc1,84
20,Cc1cc2nc(C)c(=O)n(CCC(=O)NCCCN(C)C3CCCCC3)c2cc1C,0
21,O=C(c1ccc[n+]([O-])c1)N(Cc1ccccc1)Cc1ccccc1,3
22,CCC1(CC)CCC(NC(=O)[C@@H]2CCCCC(=O)N2)CC1,-17
23,COc1cccc(S(=O)(=O)N(C)[C@H]2CCc3n[nH]c(=O)n3CC2)c1,-4
24,CCc1c(C(=O)NCc2ccc(CN3CC(C)OC(C)C3)cc2)[nH]c(C)c1C(C)=O (stereo not given),-10
25,CC(C)Cc1cc(C(=O)OC2CCCCCC2)[nH]n1,1

row,SMILES,% Inhibition [%]
1,Nc1ccc(Cc2nnc3n2CCC3)cc1,2
2,Cn1c(N2CCN(c3ccccn3)CC2)nc2c1c(=O)n(Cc1ccc(Cl)cc1)c(=O)n2C,3
3,Cc1cccc(CNC(=O)NC2CCOC2c2ccc(Cl)cc2)n1 (stereo not given),-15
4,CN1CCCN(C(=O)[C@@H]2Cc3ccccc3C(=O)O2)CC1,-14
5,COc1ccc(S(=O)(=O)N[C@H]2CO[C@@H](CN3CCC(F)(F)C3)[C@@H]2O)cc1,-4
6,CCn1cc(C(=O)O)c(=O)c2cc(F)c(N3CCN(S(=O)(=O)c4ccccc4)CC3)cc21,-10
7,Cc1ccc(NC(=O)NCc2ccccn2)nc1,-15
8,CC(NCC(O)Cn1c(-c2ccccc2)c(-c2ccccc2)c2ccc3ccccc3c21)c1ccccc1 (stereo not given),88
9,c1ccc(Oc2ccc(-c3csc4nc5ccccc5n34)cc2)cc1,4
10,Cc1ccc(C(=O)N(Cc2cccc(F)c2)c2ccc(CC(=O)N[C@@H](C)c3ccccc3)cc2)cc1,81
11,CCC(CC)C(=O)Nc1cc(C2CC2)nn1-c1nc(-c2ccccc2)cc(=O)[nH]1,50
12,CCc1ccc(NC(=O)Cc2c(C)nc3nc(-c4ccccc4C)nn3c2C)cc1,0
13,O=C(Cn1cccn1)Nc1cccc(S(=O)(=O)N2CCCC2)c1,-7
14,N#Cc1cccc(CNCC2(N3CCOCC3)CCCCC2)c1,2
15,Cn1c(-c2ccc3c(c2)OCO3)cnc1NCc1cccc(Cl)c1,4
16,COCc1cnc(NC(=O)NC2(c3ncccn3)CCOCC2)s1,1
17,O=C(Nc1sc2c(c1C(=O)O)CCC2)c1ccsc1,-3
18,COc1nc(N)nc(C(Cl)(Cl)Cl)n1,0
19,O=C(Cn1cccn1)N1CC(c2nc(-c3ncccn3)no2)C1,5
20,COc1cc(=O)c(C(=O)N2CCC(C(N)=O)CC2)nn1-c1ccc(F)c(F)c1,3
21,CCCn1nc(-n2cnnc2)c(NS(=O)(=O)c2ccc(Br)cc2)c1C,2
22,CC(C#N)CNCCC(C)c1ccccc1 (stereo not given),1
23,O=C(CN1C(=O)COc2cc(Br)ccc21)Nc1cccc2ccccc12,1
24,Cc1ccnc(-c2noc(Cn3c(=O)c(C)cn(C)c3=O)n2)c1,9
25,CCc1cc(CC)c(-c2cc(-c3ccccc3)on2)c(CC)c1-c1cc(-c2ccccc2)on1,12

row,SMILES,% Inhibition [%]
1,CCC1CC(CC(=O)NS(=O)(=O)c2ccnn2C)CCO1 (stereo not given),-1
2,Cc1cccc(N(C)C(=O)c2cc(-c3cccc(Cl)c3)[nH]n2)c1,-4
3,O=C(c1cc(F)c(F)cc1Cl)N1CCC2CCC(C1)N2 (stereo not given),-18
4,CN(Cc1ccc(N2CCOCC2)cc1)S(=O)(=O)c1ccc2c(c1)OCCCO2,1
5,O=C(NCCC(=O)N1CCCCCC1)c1cc(Cl)c2c(c1)OCCCO2,2
6,Cc1ccc(NC(=O)C2C3NC(=O)N(c4ccccc4)C2(C)Oc2ccc(C)cc23)c(C)c1 (stereo not given),-9
7,CC(C)Oc1cccnc1C(=O)N(C)c1cnn(C)c1,-5
8,O=c1[nH]nc(-c2ccc3ccccc3c2)c2conc12,18
9,COc1cc([C@H]2CC(O)=Nc3c2c(-c2ccccc2)nn3-c2ccccc2)ccc1O,4
10,CCN(CCCC(=O)c1ccc(F)cc1)CCc1ccccc1,-13
11,CC(=O)Nc1cccc(NC(=O)Cn2c(=O)n(CCc3cccs3)c(=O)c3ccccc32)c1,6
12,C[C@@H](CNS(=O)(=O)c1ccco1)N(C)S(=O)(=O)c1ccco1,-2
13,c1ccc(Oc2ccnc(NCC34COCCN3CCOC4)n2)cc1,-10
14,Cc1cccc(NC(=O)[C@H]2CCN(c3cn[nH]c(=O)c3)C2)c1,2
15,O=C(Nc1ccccc1)c1cccc(CN2CCN3CCOC[C@@H]3C2)c1,-5
16,Cc1cc(C)cc(-n2c(=O)c3sccc3n(CC(=O)N3CCCCC3)c2=O)c1,-13
17,COc1ccc(-c2cc(C(=O)N[C@H]3CCN(c4ccc(=O)[nH]n4)C3)c(C)n2C)cc1,69
18,COCc1c(Br)c(C)nc(O)c1C#N,-8
19,O=C(Nc1ccccc1)c1c([O-])n(-c2ccccc2)n[n+]1C[C@@H](O)CN1CCCCC1,2
20,C[C@H](C(=O)Nc1nccn2ccnc12)c1ccccc1,-2
21,N#C[C@@H](C(=O)Nc1cccnc1)c1ccc(F)cn1,-3
22,O=C(c1coc(-c2ccccc2)n1)N1CCc2cc(Br)ccc21,-4
23,CC(C)[C@H](NC(=O)Nc1cc(Cl)ccc1F)C(N)=O,-9
24,CCOC(=O)NCC#CCOc1ccccc1C(N)=O,-15
25,CC1(O)CC2CCC(C1)N2C(=O)c1cc(Br)c2c(c1)OCCO2 (stereo not given),-10
